Assay results taken from ChEMBL document CHEMBL4888484, “Replenishing the malaria drug discovery pipeline: Screening and hit evaluation of the MMV Hit Generation Library 1 (HGL1) against asexual blood stage Plasmodium falciparum ,using a nano luciferase reporter read-out” (2022).
The whole screen tested about 150,000 compounds, of which about 540 (0.36%) showed an effect of 50% or more. The list shows a part of the results.

Tested on: Plasmodium falciparum
Assay: Primary screen in NF54 nanoGlo assay, in single point, at 2uM, 72h; a lower Z score goes with more inhibition
Type: functional, Erythrocyte
Conditions: timepoint 72 hour

| SMILES | % Inhibition [%] | Z score |
| --- | --- | --- |
| Cc1cc2n(n1)CCCN(C(=O)Nc1ccc(S(N)(=O)=O)cc1)C2 | -9 | 1.74 |
| Cc1cc2cccc(NC(=O)NCCS(=O)(=O)N3CCCC3)c2o1 | 6 | -0.82 |
| CCCc1cc(C(=O)NC2CC(C(=O)O)c3ccccc32)[nH]n1 (centres undefined) | -8 | 1.55 |
| CC(=O)N1CCn2c(nnc2[C@@H]2CCCN2Cc2cc(Cl)ccc2F)C1 | -10 | 1.45 |
| Cc1cc(=O)n2nc(Oc3ccc(F)c(F)c3)sc2n1 | 12 | -2.22 |
| Cc1ccc(CN2CCC[C@H](CCNC(=O)C(F)F)C2)cc1C | -9 | 1.26 |
| O=C(c1ncc(-c2ccccc2)o1)N1CCN(c2ncccn2)CC1 | 16 | -2.17 |
| Cn1nc(-c2ccccc2)c(-c2ccccc2)nc1=O | -4 | 0.57 |
| COc1ccc(CC(N)=NO[C@H]2CCOC2)cc1 | -3 | 0.53 |
| CC1(c2nsc(NC(=O)[C@@H]3CCCN3c3ccc(C#N)cc3)n2)CC1 | -12 | 1.23 |
| Cc1ncc(CN2CCN(Cc3cccs3)[C@@H](CCO)C2)s1 | -5 | 0.8 |
| Cc1nscc1NC(=O)OC(C)(C)C | 16 | -1.84 |
| O=C(c1ccc(Oc2nccs2)cc1)N1CCC(N2C(=O)COC2=O)CC1 | -1 | 0.1 |
| COc1ccc(N(C)S(=O)(=O)c2ccc3c(c2)CCN3C(=O)C2CCC2)cc1 | 33 | -1.02 |
| COc1ccccc1CNC(=O)c1cccc(-n2cnc3cccnc32)c1C | -2 | 0.36 |
| O=C1CC[C@@]2(CCCN(C3Cc4ccccc4C3)C2)CN1CCc1c[nH]cn1 | -14 | 1.31 |
| Cc1ccc(N2C(=O)C3C(C)NC4(C(=O)N(CC(=O)Nc5ccccc5)c5ccccc54)C3C2=O)cc1 (centres undefined) | -4 | 0.51 |
| FC(F)c1nnc(N2CCCC3(CCCCCC3)C2)s1 | -7 | 0.63 |
| O=C(O)c1ccc(CN2C[C@H]3CCN(Cc4ccccc4)[C@H]3C2)cc1 | -2 | 0.45 |
| CCN(Cc1cccc(C(=O)Nc2c(C)nn(C)c2C)c1)C1CCOCC1 | 3 | -0.42 |
| CC(C)(C)OC(=O)N1CC2Cc3nc(O)ccc3C(C2)C1 (centres undefined) | -12 | 2.19 |
| CO[C@@]12CC[C@H](Oc3ccccn3)C[C@@H]1N(C(=O)c1c[nH]c(=O)[nH]1)CC2 | -5 | 0.86 |
| CC(C)Cn1c(=O)c2c(ncn2CC(=O)c2ccc(C#N)cc2)n(-c2ccc(F)cc2)c1=O | -13 | 2.55 |
| O=C1C[C@H](c2ccc(Cl)cc2Cl)c2cnn(Cc3ccc4c(c3)OCO4)c2N1 | -16 | 2.03 |
| CCN(CC(F)(F)F)C(=O)C[C@H](C)n1ccnc1C | -11 | 1.82 |
| O=C(Nc1ccc(F)cc1)c1n[nH]c2c1CCc1ccccc1-2 | -20 | 1.76 |

| SMILES | % Inhibition [%] | Z score |
| --- | --- | --- |
| CCOc1cccc(CN(C)[C@H](C)C(N)=O)n1 | 1 | -0.16 |
| C[C@H](C(=O)Nc1ccccc1C(F)(F)F)C1CCN(C(=O)Nc2ccc(F)cc2)CC1 | -9 | 1.22 |
| O=C(NCc1cnn(-c2cccc(F)c2)c1)[C@H]1CCCN(Cc2ccco2)C1 | -13 | 1.16 |
| C(=C\c1cnc2nn[nH]c2c1)/c1ccccc1 | 3 | -0.53 |
| C[C@@]1(Cc2ccc(F)cc2)NC(=O)N(OCC2CCC2)C1=O | -12 | 1.57 |
| COc1ccc(C(=O)N2CCC([C@H](CC(=O)O)c3ccccc3)CC2)cn1 | 30 | -3.44 |
| Nc1ncccc1OCC(=O)Nc1ccccc1F | -8 | 1.03 |
| CC(C)(C)n1nnc(CN2CCC[C@H]2c2ncn[nH]2)n1 | -13 | 1.27 |
| C=CCC(=O)N1CC[C@@]2(CCCN(Cc3cccc(F)c3F)C2=O)C1 | -6 | 0.81 |
| O=C(c1cc(F)cc(F)c1)N1C[C@@H]2CC[C@H]1CN(Cc1ccccn1)C2 | -19 | 1.91 |
| C[C@]1(CO)CN(Cc2ccc3ncccc3c2)C[C@@]1(C)CO | 17 | -2.16 |
| CCCc1cc(CN(C)[C@@H]2COc3c(cccc3OC)C2)n[nH]1 | -9 | 1.82 |
| CCN(CC)C(=O)c1ccc2c(c1)N(CC(=O)N1CCC(Cc3ccccc3)CC1)C(=O)CO2 | -6 | 0.84 |
| O=C(c1cnccn1)N(CC1CCN(Cc2ccccc2F)CC1)C[C@H]1CCCO1 | -5 | 0.7 |
| COc1ccc(CCOc2nc(-c3cccs3)n(-c3ccc(NC(=O)c4ccc(OC)cc4)cc3)n2)cc1 | 4 | -0.64 |
| Cc1ccc(-c2nc3cc(C(=O)N4CCC(CC(=O)Nc5cc(C)ccc5C)CC4)ccc3o2)cc1 | -17 | 2.05 |
| CC1CCN2C(=O)N(c3ccncc3)C(=O)C2C1 (centres undefined) | 27 | -3.05 |
| Cn1ncc2c(NCc3cc4ccccc4[nH]3)nc(-c3ccccn3)nc21 | -3 | 0.55 |
| O=C(C[C@H](c1ccc(Cl)c(C(F)(F)F)c1)c1c[nH]c2ccccc12)N1CCOCC1 | -6 | 0.69 |
| CCCC(CCC)C(=O)Nc1cccc([C@H](C)O)c1 | -6 | 1.14 |
| CN(CCc1noc(C2CC2)n1)C(=O)c1nc2ccccc2[nH]c1=O | -13 | 2.28 |
| Clc1ccc(Cn2c(-c3ccccc3)cn3c4ccccc4nc23)cc1 | 6 | -0.93 |
| c1cnn(CCNCc2nc(C3CC3)no2)c1 | 7 | -1 |
| Cc1ccn2ncnc2c1NS(=O)(=O)c1ccc2c(c1)CCCC2 | 16 | -1.82 |
| O=S(=O)(N[C@H]1CCc2ncccc2C1)c1cnn2c1OCCC2 | -7 | 1.4 |
| CCOC(=O)c1c(C)c(C(=O)N2CCN(c3ccccc3Cl)CC2)c(C)n1C | -11 | 1.37 |
